Data: PMC4826441
No constants are given. Whether binding was seen depends on the method and setting. In cells and extracts the contact can be indirect. Some binding calls cover weakened binding; strength is not graded here. For some assays here: Sequences can lack the tags named with a protein.

The chains behind the UniProt entries cited, without tags or fusion partners.
UniProt P46097: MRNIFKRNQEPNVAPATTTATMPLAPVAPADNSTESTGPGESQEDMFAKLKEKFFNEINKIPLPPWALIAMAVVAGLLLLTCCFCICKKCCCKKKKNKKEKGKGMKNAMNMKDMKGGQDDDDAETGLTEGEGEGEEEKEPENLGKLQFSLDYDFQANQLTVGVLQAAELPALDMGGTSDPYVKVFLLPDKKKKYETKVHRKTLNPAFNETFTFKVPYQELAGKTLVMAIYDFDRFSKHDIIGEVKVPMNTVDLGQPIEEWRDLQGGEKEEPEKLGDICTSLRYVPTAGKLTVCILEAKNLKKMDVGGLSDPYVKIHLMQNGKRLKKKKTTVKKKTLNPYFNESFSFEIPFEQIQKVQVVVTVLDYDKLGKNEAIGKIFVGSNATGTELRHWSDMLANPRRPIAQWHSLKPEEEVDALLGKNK
UniProt P63040: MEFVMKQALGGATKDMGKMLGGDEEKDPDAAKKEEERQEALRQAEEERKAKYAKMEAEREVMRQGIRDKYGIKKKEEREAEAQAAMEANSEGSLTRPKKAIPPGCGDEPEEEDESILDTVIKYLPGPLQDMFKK
UniProt P60879: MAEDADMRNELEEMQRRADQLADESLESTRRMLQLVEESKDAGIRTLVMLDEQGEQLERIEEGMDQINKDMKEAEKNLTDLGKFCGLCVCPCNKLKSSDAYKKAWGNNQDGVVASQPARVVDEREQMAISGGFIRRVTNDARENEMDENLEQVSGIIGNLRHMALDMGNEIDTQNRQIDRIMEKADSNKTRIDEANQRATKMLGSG
UniProt P63044: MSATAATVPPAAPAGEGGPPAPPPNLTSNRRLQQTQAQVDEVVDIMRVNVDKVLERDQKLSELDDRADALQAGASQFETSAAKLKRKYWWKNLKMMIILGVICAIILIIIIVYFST

T1: FLAG-tagged PRRT2 (proline-rich transmembrane protein 2) (UniProt E9PUL5)
T1 sequence: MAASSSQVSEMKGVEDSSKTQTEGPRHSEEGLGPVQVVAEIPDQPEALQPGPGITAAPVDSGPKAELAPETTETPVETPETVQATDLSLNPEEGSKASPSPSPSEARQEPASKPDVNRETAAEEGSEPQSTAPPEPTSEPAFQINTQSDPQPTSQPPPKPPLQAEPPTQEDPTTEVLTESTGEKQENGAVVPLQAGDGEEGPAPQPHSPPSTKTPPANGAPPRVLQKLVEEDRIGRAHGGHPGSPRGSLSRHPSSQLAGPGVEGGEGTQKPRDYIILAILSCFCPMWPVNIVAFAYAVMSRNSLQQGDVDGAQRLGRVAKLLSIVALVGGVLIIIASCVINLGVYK

B1: complexin 2 (protein, UniProt P84086 1-134)
chain: MDFVMKQALGGATKDMGKMLGGEEEKDPDAQKKEEERQEALRQQEEERKAKHARMEAEREKVRQQIRDKYGLKKKEEKEAEEKAALEQPCEGSLTRPKKAIPAGCGDEEEEEEESILDTVLKYLPGPLQDMFKK

What was measured:
[1] = biological target: FLAG-tagged bacterial alkaline phosphatase [phosphatase: P00634]; experiment: pull-down; FLAG-PRRT2 or FLAG-BAP expressed in HEK293T cells, purified by anti-FLAG M2 affinity gel and incubated with mouse brain synaptosome lysates; pellets analysed by western blotting; only the target purified
[2] = biological target: T1, FLAG-tagged PRRT2 (proline-rich transmembrane protein 2); experiment: as above

Row | Molecule | binding [1] | binding [2]
1 | synaptotagmin 2 (from UniProt P46097 1-422) | no binding | binds
2 | complexin 1 (from UniProt P63040 1-134) | – | no binding
3 | synaptosomal-associated protein 25 kDa (from UniProt P60879 1-206) | no binding | binds
4 | VAMP2/synaptobrevin (from UniProt P63044 1-116) | no binding | binds
5 | B1 | – | no binding
